About 830 (1.9%) of roughly 43,000 compounds were called active. Inconclusive means that the source gave no clear call. Such entries were picked first, then a sample of the others. Rule for the calls: active = clear falling dose curves in both reporters; inconclusive = both reporters move, but less clearly or upward; inactive = either reporter flat; the % is the NLuc reporter signal. Potencies of inconclusive entries are left out as doubtful fits.
Test: Cell-based coincidence reporter assay to measure PMP22 gene transcription in S16 Pmp22-F2sN cells - Primary screen
Conditions: S16 Pmp22-F2sN Schwann cells (luciferase reporters placed in the Pmp22 gene), FLuc/NLuc coincidence luminescence, 24 h; measured here: NLuc reporter readout, at 57.5 µM (top of the series); activity change, negative = inhibition: at the top concentration
In short: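 qHTS, 1536-well. Cells seeded, compounds added by pin tool, 24 h 37C. Nano-Glo reagent 1 (lysis/FLuc), 10 min RT, read; Stop&Glo, 10 min RT, read NLuc.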
% is set by controls: 0 for no effect and ±100 for the full control effect; potency is the fitted concentration of half-maximal effect; tags give direction and shape of the fitted curve.

Structure (SMILES) | Potency | activity change, negative = inhibition
CN(C)c1ccc(CNC(=O)C2CCN(Cc3cc4ccccc4n3Cc3ccccc3)CC2)cc1 | inconclusive [phenotype inactive, single point] | –
CCOc1ccc(NC(=O)c2cc(S(=O)(=O)N3CCN(c4ccccc4F)CC3)ccc2F)cc1 | inconclusive [phenotype inactive, single point] | –
CC1CCN(S(=O)(=O)c2ccc3c(c2)N(CC(=O)NCC(C)c2ccccc2)C(=O)CO3)CC1 (stereo not drawn) | – | inactive: -6.43%
Cn1nnnc1SCCCNCc1cccc(OCc2ccccc2)c1 | active: 20 µM | –
COc1ccc(C(=O)NCc2ccc3c(c2)CCN3C(=O)c2ccc(F)cc2)cc1 | – | inactive: 1.83%
CCC(C)NC(=O)Cn1c(=O)n(Cc2ccc(C(=O)NCc3ccc(C)cc3)cc2)c(=O)c2ccccc21 (stereo not drawn) | inconclusive [phenotype inactive, single point] | –
CCCCCn1cc2c(c1-c1ccccc1Br)c(=O)n(C)c(=O)n2C | – | inactive: -17.7%
Cc1ccc(CCNC(=O)c2ccc3c(c2)nc2n3CCOC2)cc1 | – | inactive: -0.548%
COc1ccccc1CNC(=O)CSc1nnc(C)c2c(C)n(-c3ccccc3)nc12 | active: 15 µM | –
CCN1CCc2c(sc(-n3cccc3)c2C(C)NC(=O)Nc2cc(Cl)c(OC)cc2OC)C1 (stereo not drawn) | inconclusive [phenotype inactive, single point] | –
O=C(NCCn1cc(SCc2ccccc2)c2ccccc21)c1cccs1 | inconclusive [phenotype inactive, partial curve] | –
CCc1nn2c(=O)cc(COC(=O)c3ccc4c(c3)OCO4)nc2s1 | inconclusive [phenotype inactive, single point] | –
CCc1ccccc1N1CC(c2nc3ccccc3n2CCOc2ccc(Cl)c(C)c2)CC1=O (stereo not drawn) | inconclusive [phenotype inactive, partial curve] | –
CCOC(=O)c1c(C)oc2nc(C)nc(N(C)Cc3ccccc3)c12 | inconclusive [phenotype inactive, single point] | –
CCOC(=O)CNC(=O)Nc1cc(C(=O)NCc2ccc(C(C)C)cc2)ccc1N1CCCC1 | inconclusive [phenotype inactive, single point] | –
Cc1ccc(S(=O)(=O)N2CCCc3cc(NS(=O)(=O)c4ccccc4)ccc32)cc1 | inconclusive [phenotype inactive, single point] | –
COc1ccc(N(CC(=O)NCCc2ccccc2)S(=O)(=O)c2c(C)nn(C)c2C)cc1 | inconclusive [phenotype inactive, single point] | –
CCOc1ccc(CCNC(=O)CCCn2c(=O)c3cccn3c3cccnc32)cc1 | inconclusive [phenotype inactive, partial curve, poor fit] | –
CCC(=O)N1c2ccccc2CC1C(=O)NCCN1CCN(c2cc(Cl)ccc2C)CC1 (stereo not drawn) | inconclusive [phenotype inactive, partial curve] | –
CCN(C(=O)C(NS(=O)(=O)c1ccc(Br)s1)c1ccccc1)c1ccc(C)c(C)c1 (stereo not drawn) | inconclusive [phenotype inactive, single point] | –

Structure (SMILES) | Potency | activity change, negative = inhibition
O=C(CSc1nc(=O)n(Cc2ccncc2)c2c1CCC2)Nc1cccc(F)c1 | inconclusive [phenotype inactive, single point] | –
COc1cc(C2CC(=O)c3c([nH]c(C(=O)OC4CCCC4)c3C)C2)cc(OC)c1OC (stereo not drawn) | inconclusive [phenotype inactive, partial curve] | –
Cc1ccc2c(CN3CCN(C(=O)c4ccc(Br)cc4)CC3)cc(=O)oc2c1 | inconclusive [phenotype inactive, partial curve, poor fit] | –
Cc1c(CCC(=O)N2CCCCC2)c(=O)oc2cc3occ(C(C)(C)C)c3cc12 | inconclusive [phenotype inactive, single point] | –
CCCN1CCN(c2ncnc3sc(C(=O)Nc4c(C)cc(C)cc4C)c(C)c23)CC1 | inconclusive [phenotype inactive, single point] | –
Cc1cccc(NC(=O)CN2C(=O)c3cccc4cccc2c34)c1C | inconclusive [phenotype inactive, single point] | –
Cc1ccc2nc(-c3ccc(NC(=O)c4ccc(S(C)(=O)=O)cc4)cc3)sc2c1 | – | inactive: -11.2%
CC(=O)c1ccc(N2CCN(c3ncnc4c3nc3n4CCCC3)CC2)cc1 | inconclusive [phenotype inactive, partial curve] | –
COc1ccccc1N1CCN(c2ncc3c(n2)CCN(Cc2ccccc2F)C3)CC1 | – | inactive: 0.279%
CCOc1ccc(CCNC(=O)C2CCN(C(=O)c3cc4sccc4n3CC)CC2)cc1OCC | inconclusive [phenotype inactive, single point] | –
CCOc1ccc(NC(=O)N2CCN(Cc3cc(=O)n4nc(-c5ccc(OC)cc5)sc4n3)CC2)cc1 | inconclusive [phenotype inactive, single point] | –
CC(=O)c1ccc(NC(=O)C2CCC(CNS(=O)(=O)c3cccs3)CC2)cc1 (stereo not drawn) | – | inactive: -4.25%
COCCNC(=O)C1CCN(c2nc3ccccc3nc2C(F)(F)F)CC1 | – | inactive: 46.4%
Cc1cccc(NC(=O)CSc2nc(-c3ccccc3Cl)nc3c2Cc2c(CO)cnc(C)c2O3)c1C | – | inactive: -11.1%
Cc1ccc(OCC(=O)Nc2nc(-c3ccc(Br)cc3)ns2)cc1C | inconclusive [phenotype inactive, single point] | –
CCCCOc1nnc(-c2ccc(OCC)cc2)c2ccccc12 | inconclusive [phenotype inactive, partial curve] | –
CCCC(=O)Nc1nnc(SCc2cc(=O)c3ccc(C)cc3[nH]2)s1 | active: 6.77 µM | –
Cc1c(Cl)cccc1Nc1nc(N)nc(CSc2nc3ccccc3s2)n1 | inconclusive [phenotype inactive, single point] | –
CCN(Cc1ccccc1)C(=O)Cn1c(=O)n(-c2ccc(OC)cc2OC)c(=O)c2c(C)c(C)sc21 | inconclusive [phenotype inactive, single point] | –
COc1cccc(CNC(=O)c2cc3n(n2)CCCN(Cc2ccc(C)cc2)C3=O)c1OC | inconclusive [phenotype inactive, single point] | –

Structure (SMILES) | Potency | activity change, negative = inhibition
O=c1n(Cc2cccc(F)c2)c2ccccc2c2nc(-c3ccccc3)nn12 | inconclusive [phenotype inactive, single point] | –
CCCCOc1ccc(C(C)NC(=O)c2cccc(Nc3nc4ccccc4n4nnnc34)c2)cc1 (stereo not drawn) | active: 5.32 µM | –
COc1ccc(C)cc1NC(=O)CCc1c(C)nn(-c2ccc(N3CCOCC3)nn2)c1C | inconclusive [phenotype inactive, single point] | –
COc1cccc(-c2ccc3c(N)c(C(=O)c4ccc(Br)cc4)sc3n2)c1 | inconclusive [phenotype inactive, single point] | –
O=C(O)CCCNc1cc(N2CCN(C3CCCCC3)CC2)c2noc3c2c1C(=O)c1ccccc1-3 | inconclusive [phenotype inactive, single point] | –
Cc1cccc(N2C(=O)CS(=O)(=O)C23C(=O)N(Cc2c(F)cccc2Cl)c2ccccc23)c1 (stereo not drawn) | – | inactive: 0.463%
Clc1cccc(CNc2cc(-c3ccccc3)nc3nncn23)c1 | inconclusive [phenotype inactive, partial curve] | –
CCOC(=O)N1CCN(Cc2nc3cc(NC(=O)c4ccc(OC)cc4)ccc3n2C(C)C)CC1 | inconclusive [phenotype inactive, single point] | –
O=C(COc1ccc(Cl)cc1)Nc1ccc(C(=O)OCc2cc(=O)n3ccsc3n2)cc1 | inconclusive [phenotype inactive, single point] | –
CCOC(=O)c1ccccc1NC(=O)CSc1nc(=O)[nH]c2c1CCC2 | inconclusive [phenotype inactive, single point] | –
Cc1ccc(N(C)C(=O)C2CCN(S(=O)(=O)c3c(C)noc3/C=C/c3c(C)cc(C)cc3C)CC2)cc1 | inconclusive [phenotype inactive, partial curve] | –
COc1cccc(OCCSc2nc(C)c(Cc3ccccc3)c(=O)[nH]2)c1 | inconclusive [phenotype inactive, single point] | –
CCCOc1ccc(CNC(=O)c2ccc(-n3c(C)cc4c3CCC(C)C4)cc2)cc1 (stereo not drawn) | inconclusive [phenotype inactive, single point] | –
CCOc1ccccc1Nc1nnc(-c2cc3cc(OC)ccc3oc2=O)s1 | inconclusive [phenotype inactive, single point] | –
CCOc1ccc(-c2nn(CC(=O)NC3CCCC3)c3c2cnc2ccc(C)cc23)cc1 | inconclusive [phenotype inactive, partial curve, poor fit] | –
COc1ccc(NC(=O)Cn2c(SCc3ccc(F)cc3)nc3cccnc32)cc1OC | – | inactive: -61%
O=C(NCCc1ccc(Cl)cc1)c1ccc(CS(=O)Cc2ccccc2Cl)o1 (stereo not drawn) | inconclusive [phenotype inactive, partial curve, poor fit] | –
COc1cc(Cl)c(NS(=O)(=O)c2ccc(-c3cnc(C4CC4)o3)cc2)c(OC)c1 | active: 2.99 µM | –

Source: PubChem BioAssay AID1508649 (National Center for Advancing Translational Sciences (NCATS), 2021)
